# Test results published in PubChem BioAssay AID1347043 (National Center for Advancing Translational Sciences (NCATS), 2019).
# About 1,900 (2.5%) of roughly 76,000 compounds were called active. Inconclusive results, whose numbers are uncertain, are shown with a selection of clear calls. Calls come from the whole dose curve; as a rule, active = well fitted inhibition curve with a large enough effect; inconclusive = small, poorly fitted or top-dose-only effect; inactive = flat fitted curve, though single readings scatter. Where the call is inconclusive, the potency comes from a doubtful curve fit.
# Target: Luciferin 4-monooxygenase (Photinus pyralis) (UniProt P08659)
# Assay: Firefly luciferase inhibition profiling of diverse chemical library using quantitative high-throughput screening; note: nearly all actives have a fitted effect of over 65% in size
# Details: purified P. pyralis luciferase, luminescence, biochemical; activity change, negative = inhibition: at 115 µM (top of the series) unless noted
# Summary of the method: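 Luminescence read by CCD imaging after purified firefly luciferase (10nM final) was added to substrate buffer holding 10uM D-luciferin and 10uM ATP, pH 7.5, pre-dosed with compound.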
# % is set by controls: 0 for no effect and ±100 for the full control effect; potency is the fitted concentration of half-maximal effect; tags give direction and shape of the fitted curve.
# Chain of UniProt P08659 (P08659 whole entry, looked up): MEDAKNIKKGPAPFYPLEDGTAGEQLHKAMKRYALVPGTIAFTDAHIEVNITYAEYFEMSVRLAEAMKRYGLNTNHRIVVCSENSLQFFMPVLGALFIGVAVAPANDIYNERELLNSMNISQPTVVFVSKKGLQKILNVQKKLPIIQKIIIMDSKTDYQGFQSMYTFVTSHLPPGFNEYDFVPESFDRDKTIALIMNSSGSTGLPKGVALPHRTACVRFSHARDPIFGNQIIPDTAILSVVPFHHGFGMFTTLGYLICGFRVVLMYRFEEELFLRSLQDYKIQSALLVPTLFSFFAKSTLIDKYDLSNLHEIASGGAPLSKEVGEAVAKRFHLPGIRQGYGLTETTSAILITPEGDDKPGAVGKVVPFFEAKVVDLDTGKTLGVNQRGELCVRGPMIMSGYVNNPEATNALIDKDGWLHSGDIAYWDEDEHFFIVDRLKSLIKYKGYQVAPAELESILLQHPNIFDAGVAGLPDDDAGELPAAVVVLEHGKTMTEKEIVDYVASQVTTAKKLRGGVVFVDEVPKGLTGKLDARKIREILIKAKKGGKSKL
Compound,Potency,"activity change, negative = inhibition"
CN(C(=O)c1ccc(F)cc1)C1CCCc2ccccc21 (stereo not drawn),"inconclusive: 100 µM [inhibitor, partial curve, poor fit]",–
CC(C)Oc1ccc(C2(C(=O)N3C[C@@H](C)[C@](O)(C4CC4)C3)CCCC2)cc1,–,inactive: 1.21%
COCCNC(=O)[C@@H]1CCC[C@@H](NCc2cccnc2)CN(C)C(=O)C1,–,inactive: -1.69% [at 172 µM]
N#Cc1cccc(CN2C[C@H](O)C[C@H]2c2nc(-c3ccccn3)no2)c1,"inconclusive: 112 µM [inhibitor, partial curve]",–
COc1ccc(-c2ccc3c(c2)C(=O)N2CC[C@H](NC(=O)C4CCCC4)[C@H]2C(=O)N3)cc1,active: 22.4 µM,–
COc1ccc(C(=O)N[C@H]2C[C@@H](Cc3cc(-c4ccccc4)on3)C2(C)C)cc1,"inconclusive: 63.1 µM [inhibitor, full curve]",–
O=C(N[C@H]1CCN2C(=O)c3cc(/C=C/c4ccccc4)ccc3NC(=O)[C@H]12)c1cnccn1,"inconclusive: 11.2 µM [inhibitor, full curve]",–
COc1cc(CNC(=O)c2cc(-c3cccc(N(C)C)c3)cc3ncn(C)c23)ccn1,"inconclusive: 50.1 µM [inhibitor, partial curve]",–
O=C(Cc1c[nH]c2ncc(-c3ccc(Cl)cc3)cc12)NCc1cccnc1,"inconclusive: 44.7 µM [inhibitor, partial curve]",–
O=C(NC1CCCC1)N1c2ccccc2CC1c1noc(C2CCOCC2)n1 (stereo not drawn),active: 5.01 µM,–
CCNc1ncc(C(=O)N(CCc2ccccc2)Cc2ccco2)cn1,–,inactive: 1.08%
OC(c1nc(Nc2cccc(F)c2)n[nH]1)C1CC1 (stereo not drawn),"inconclusive: 100 µM [inhibitor, partial curve]",–
COc1cccc2sc(NC(=O)c3ccc4c(c3)OCCN(C3CCC3)C4)nc12,"inconclusive: 14.1 µM [inhibitor, full curve, poor fit]",–
Cc1ccc(NC(=O)c2cc(-c3ccc[nH]3)n[nH]2)cc1,active: 3.98 µM,–
COC(=O)[C@@H]1Cc2ncn(C)c2CN1C(=O)c1ccc(-c2ccccc2)cc1,"inconclusive: 70.8 µM [inhibitor, partial curve]",–
Cc1ccsc1C(=O)N1CC(Oc2ccc(-c3nc(-c4ccccc4)no3)cc2)C1,"inconclusive: 15.8 µM [inhibitor, full curve]",–
CCn1cc(S(=O)(=O)N2CCC(c3ncc(C)n3Cc3ccccc3)C2)cn1 (stereo not drawn),–,inactive: -8.15%
O=C(Nc1cccc(-c2nnc3n2CCCC3)c1)c1nccc2ccccc12,"inconclusive: 35.5 µM [inhibitor, partial curve]",–
